Measured values published in PMC12136788.
The list shows a part of the results.

T1: UNK ZnF1-3 (human, UniProt Q9C0B0 31-174)
T1 sequence: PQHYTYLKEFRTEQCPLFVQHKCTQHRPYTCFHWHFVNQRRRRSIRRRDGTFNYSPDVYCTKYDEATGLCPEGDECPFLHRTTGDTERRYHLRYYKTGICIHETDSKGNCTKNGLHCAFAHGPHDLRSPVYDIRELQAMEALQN

B1: chr2:47387792:47387793:-_ENSG00000143933_ENST00000272298|hu_hu|hu_hu_hu_mus_True|1_8 (ssRNA)
RNA: GGGAGUUCUACAGUCCGACGAUCUAAGGACAAUGACAGUAAGAUAAGGGAAGAAAACAUGGAGGAAUGAAGUCCUAAUUACUAUACAUGCAUAUUUUUUGACAGUAGGGGGGGGGAACCUUUUACAUAAGUUACAAACAAAGACAACAGAGGAUUGAGCAUCA
B2: 61440021_61440141_3660_3pUTR_ENSG00000126814_ENST00000261249|human|control|control (ssRNA)
RNA: GGGAGUUCUACAGUCCGACGAUCCAUAGCACUGGCAUCUGCUUCUGGGGAAGCCUCAGGAAGCUUUUACUCAUGGUAGAAGGCAAAAUAGGAGAAGGCACUUCACAUGGCGAAGGCAGGAGCAAGAGAGUGUGGGGGGCGAGUCAACAGAGGAUUGAGCAUCA
B3: chr11:31955072:31955073:+_ENSMUSG00000020297_ENSMUST00000020537|mus_mus|FALSE|FALSE (ssRNA)
RNA: GGGAGUUCUACAGUCCGACGAUCCUUGUGCUUGUAGACAAAUCCUUCAGGACAGCUGUGGUCAUAGGUAAAGGCUUUGUAAACCACCAGGAACACAAUGCAAGCAAGGAAGGCAAGGGCCAGGCUGACAAGAAUGGUGACCGUCAACAGAGGAUUGAGCAUCA
B4: chr4:17845017:17845018:+_ENSG00000109805_ENST00000514176|hu_mus|hu_hu_hu_mus_False|68_68 (ssRNA)
RNA: GGGAGUUCUACAGUCCGACGAUCGCUCUCUUAACUUGUAUCUUCAUUAAGGAACUCUGCAAGGUUAGUUUACUUUUUCUGUAGCGCAGCUGUUUUGGCUCGUCUGGGUAAUCUCAUCUUCAUUUCUGAUGGUGGUUCAUGAUCCAACAGAGGAUUGAGCAUCA
B5: chr9:90322654:90322655:+_ENSG00000196730_ENST00000408954|hu_mus|FALSE|FALSE (ssRNA)
RNA: GGGAGUUCUACAGUCCGACGAUCUUUCUUUCUUUCCUUAUUUCUUCCUUUCUUUUUCUUUUUUUUUUUUCUUUUUUGAUAAGGAUAAUCAAUAAAGGAGUUAAAUUGUUUUCAUCGAAAAGUUUGGAAUCUCAAUAAAAUUAUCAACAGAGGAUUGAGCAUCA
B6: chr16:11966626:11966627:-_ENSG00000103342_ENST00000563468|hu_hu|motif|central (ssRNA)
RNA: GGGAGUUCUACAGUCCGACGAUCUUGUAACAUGUGCACACACACUCGCACACUCAGAAUGAUCUGCCUGGGGGAAAAAUACGGAAUAUGCCUAAGGGGAAAAUGAAAAAUAAAAAAAUUCCUGUAGGUUUUCAUUAUUGUAGGCAACAGAGGAUUGAGCAUCA
B7: chr8:30643436:30643437:-_ENSG00000104695_ENST00000221138|hu_hu|FALSE|FALSE (ssRNA)
RNA: GGGAGUUCUACAGUCCGACGAUCUUUUCUUAAAAAUAAAACUCCAACUCUAUUAAUCCAUGCCAGUUAAACACUAUAACUAAAAUUUCCAAAUAAGCGCAAAAGGAGAUGAAGCAGUUAGUUACCUUUUUUGCUUGAACAGUCCAACAGAGGAUUGAGCAUCA
B8: chr17:65740002:65740003:+_ENSG00000130935_ENST00000581375|hu_hu|hu_hu_hu_mus_False|48_68 (ssRNA)
RNA: GGGAGUUCUACAGUCCGACGAUCAACAAAUCUUUCUUCCCUGGACGAACAGGAAGAUUCAUAUUAACUUUAUAAAAUAUCCAUCAAGGAGAAUUGAGUGGCCACACCUUUACUCCCAGCACUUUGGGAGGUGGAUCUCUGAGUCAACAGAGGAUUGAGCAUCA
B9: chr8:95500983:95500984:-_ENSG00000164944_ENST00000437199|hu_hu|hu_hu_hu_mus_True|58_98 (ssRNA)
RNA: GGGAGUUCUACAGUCCGACGAUCAGAACACAUCUAUUCGUGUAAAGACCGUACAUGACGGCCUCUACCACUGCCUCCCACUAACAACUUUCCUCUCGAGCCUCCACUGCCGCUAUUUGUACUAGCCCAGGACGGUCCCAGGCCCAACAGAGGAUUGAGCAUCA
B10: 55214808_55276974_766_CDS_ENSG00000115310_ENST00000317610|human|control|control (ssRNA)
RNA: GGGAGUUCUACAGUCCGACGAUCGUCUCUCCAGUACAGGAGGUCAACAACCACUGAGCCCGAGGAGCCCCUGCGCUUGGGCGCGGCCGGGGUGGAGGGGGGCGCGGCGGGAGCCGGGGCUGGCGGGGUCCACACGGGCUCUGCCAACAGAGGAUUGAGCAUCA
B11: chr1:150549822:150549823:-_ENSG00000143384_ENST00000369026|hu_mus|FALSE|FALSE (ssRNA)
RNA: GGGAGUUCUACAGUCCGACGAUCUAAAUACACAUGUUUUCACAGAUGCAUGUAGUUUGGUGGCUGGAGCUUUAAGAGUCCCCUAUUGCACUCACAAGGCUAUCUUAUUAGAUAUGCCAGACCAGCCCCUACUCCAGCAACACCCAACAGAGGAUUGAGCAUCA
B12: chr11:87793471:87793472:-_ENSMUSG00000020483_ENSMUST00000020775|mus_mus|mus_mus_mus_hu_False|1_78 (ssRNA)
RNA: GGGAGUUCUACAGUCCGACGAUCUGGACUUGAAAAUAAAAGAAUAAGCUGGAUCCCCCCACCCCUUACAUUGUCAACCCUACACGAGAGUUUUGAAGGCGACUCAUGAAAAUCAGCAGCUCAAACGGCAAUGACCACCCACCCCAACAGAGGAUUGAGCAUCA
B13: chr7:151048522:151048523:+_ENSG00000013374_ENST00000566856|hu_mus|hu_hu_hu_mus_True|58_98 (ssRNA)
RNA: GGGAGUUCUACAGUCCGACGAUCCUGUUUCUUAUUUAUGACAAUUUUGAUGUAAUUUUCUUGAAAUCCGAAAGUUUCAGCUAUUUUACACCUCAGGUCUCUACCAGUGACAUGCAAGCGGGUCUCCAACAAGCUUUUCUUAUCCAACAGAGGAUUGAGCAUCA
B14: chr1:231700301:231700302:+_ENSG00000116918_ENST00000366639|hu_hu|FALSE|FALSE (ssRNA)
RNA: GGGAGUUCUACAGUCCGACGAUCGUCAGCCACUCCCAGAAGGUAAUCGACAGGUGUGACUCUCAGUCUCCAAGUACCAAACUGCUUAUCCUGUGCAUCAGAGGAGGGAGUUUUAUUUUCUUUCCCAUUGUCUUCAGUCGUAAACAACAGAGGAUUGAGCAUCA
B15: chr18:56819859:56819860:+_ENSG00000166562_ENST00000588875|hu_mus|hu_hu_hu_mus_True|78_88 (ssRNA)
RNA: GGGAGUUCUACAGUCCGACGAUCAACCUUGAUUACUCUGUGAACUAUUGGAAUGUCUCGUCCUUCAACCUUAAAAACAACUAUUUCACCAGCUCUGAUGGGGUCCUCCCGGAAAUUCGUGAGGAACAGCAGAUCUCCUCUGUGCAACAGAGGAUUGAGCAUCA
B16: chr11:51804979:51804980:-_ENSMUSG00000020390_ENSMUST00000020657|mus_hu|FALSE|FALSE (ssRNA)
RNA: GGGAGUUCUACAGUCCGACGAUCGAUAAAAACCUAACAGUUGGUGGUUUAUUUGGAUAUUCUUCAGAAAAUUCUAUUACUAGUUUAAAAGUACCAUCUUCAAAAGGUGUCCCUUCUGGUCCAAAUAUAACUGCAUUCCACUGCCAACAGAGGAUUGAGCAUCA
B17: chr9:107926503:107926504:+_ENSMUSG00000032594_ENSMUST00000035214|mus_hu|FALSE|FALSE (ssRNA)
RNA: GGGAGUUCUACAGUCCGACGAUCGGGGGCCAGUUGCACACUGAGGGCAGAGGAUGCAGCACAUGGGCCACAAAAGGAGAGCUACAUAGAAGGUCCUGGCCAGGUGAAAGCCAAUGGUCAGAUUCUAUUCAGCUUAUUAUUCUGCAACAGAGGAUUGAGCAUCA
B18: 77531739_77531859_264_3pUTR_ENSG00000048649_ENST00000308488|human|control|control (ssRNA)
RNA: GGGAGUUCUACAGUCCGACGAUCCGCUGCCGCCGCCGUCGCCAUUUUGAACUGGAGGAUGGAGGAGGAGGCGAUGGGGGGGCGGGGGAAGUUGUGGUGCCGAGGGAUGGCAAGGCAACCUUACAGACGACAGGAGGCGCUCUCCAACAGAGGAUUGAGCAUCA
B19: chr22:19452774:19452775:-_ENSG00000070010_ENST00000399523|hu_hu|hu_hu_hu_mus_False|18_58 (ssRNA)
RNA: GGGAGUUCUACAGUCCGACGAUCCUUCUCAUUGUAGUUGAUAGCAAUCACAUCUCCAGUCGUCAGACAGGCGAAGUUCCUAAGUGCAUUUUCUAAUACCGCUUUAGGGUUGGUAAUGUCCAGGAAGUCUGGGCUCUGAGGCUGCAACAGAGGAUUGAGCAUCA
B20: chr7:90019433:90019434:+_ENSMUSG00000057706_ENSMUST00000082237|mus_hu|mus_mus_mus_hu_True|98_98 (ssRNA)
RNA: GGGAGUUCUACAGUCCGACGAUCAAAUAAUACAGUGUCUUUGCCAUUAAGGCCAUACUAAAAUAAAAAGAUUUAACCCAGCUACAAAAAAGUUCACUGAACUUAAAUUAAAAUACUUGUAAACAUCUUUGCAAUAUGAAAUAUCAACAGAGGAUUGAGCAUCA
B21: chr12:105536279:105536280:+_ENSG00000136051_ENST00000332180|hu_hu|motif|central (ssRNA)
RNA: GGGAGUUCUACAGUCCGACGAUCAGCACUGAACAUGUAAUGUAAUCUGGCUGCAUCAACAGCAUUUUCAUAUACAUCAUCGGAAUAAAUUGGGAAGACAGCUCGAUGCCAGUAUAAAAAACAACAGUCACAUUGUGUUUGGACCAACAGAGGAUUGAGCAUCA
B22: 111896111_111896319_11175_CDS_ENSMUSG00000018707_ENSMUST00000018851|mouse|control|control (ssRNA)
RNA: GGGAGUUCUACAGUCCGACGAUCCACCCGGGAGCAGAGGUCUGGUGGGAACUCCACAGUUGGGUCUCGGGUAGACAGAAAGAUGACAAAGGAUGGUGACAGGUCUAUGUCUUGGUCACCGAGGGUAAUCAGCACCCUCCCUCCCAACAGAGGAUUGAGCAUCA

These binders were tested against T1, UNK ZnF1-3 (assay: nsRBNS (natural sequence RNA bind-n-seq); RBNS binding buffer (assumed for nsRBNS): 25 mM Tris pH 7.5, 150 mM KCl, 3 mM MgCl2, 0.01% Triton X-100, 500 ug/ml BSA, 20 U/ml SUPERase-In, 4 C; UNK is unkempt and MSI1 is Musashi-1; names of the RNAs are library labels; protein concentration not given here; high values mean tight binding).

Binder	binding signal [enrichment R]
B1	2.1
B2	2.06
B3	1.49
B4	0.425
B5	0.859
B6	2.8
B7	1.2
B8	1.57
B9	0.985
B10	0.674
B11	0.637
B12	2.13
B13	0.751
B14	1.51
B15	0.768
B16	0.947
B17	1.75
B18	1.5
B19	0.653
B20	2.83
B21	1.81
B22	1.09
